# From the supplement of paper PMC8728848
# The other results are listed elsewhere or left out.
# How the values were obtained:
# Test in all cases: glycan array binding signal (z-score within array); higher = stronger binding
# Settings in all cases: glycan notation: IUPAC condensed, linker removed
# [1] = target: Neu5Ac(a2-3)Gal(b1-4)GlcNAc(b1-3)Gal(b1-4)GlcNAc
# Method in brief: (§1)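 The binding signal is a Z-score computed within each array. Data were drawn from 3228 arrays in the Consortium for Functional Glycomics database, restricted to those with a known protein sequence. Scores were averaged over arrays of the same protein sequence at different concentrations or buffers, and over linkers, and negative values can be taken as non-binding.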
# [2] = target: Neu5Ac(a2-3)Gal(b1-4)GlcNAc(b1-3)Gal(b1-4)GlcNAc(b1-2)Man(a1-3)[Neu5Ac(a2-3)Gal(b1-4)GlcNAc(b1-3)Gal(b1-4)GlcNAc(b1-2)Man(a1-6)]Man(b1-4)GlcNAc(b1-4)GlcNAc
# Method in brief: as §1
# [3] = target: Neu5Ac(a2-3)Gal(b1-4)GlcNAc(b1-3)Gal(b1-4)GlcNAc(b1-3)Gal(b1-4)GlcNAc
# Method in brief: as §1
# [4] = target: Neu5Ac(a2-3)Gal(b1-4)GlcNAc(b1-3)Gal(b1-4)GlcNAc(b1-3)Gal(b1-4)GlcNAc(b1-2)Man(a1-3)[Neu5Ac(a2-3)Gal(b1-4)GlcNAc(b1-3)Gal(b1-4)GlcNAc(b1-3)Gal(b1-4)GlcNAc(b1-2)Man(a1-6)]GalNAc
# Method in brief: as §1
# [5] = target: Neu5Ac(a2-3)Gal(b1-4)GlcNAc(b1-3)Gal(b1-4)GlcNAc(b1-3)GalNAc
# Method in brief: as §1
# [6] = target: Neu5Ac(a2-3)Gal(b1-4)GlcNAc(b1-3)Gal(b1-4)GlcNAc(b1-3)[Neu5Ac(a2-3)Gal(b1-4)GlcNAc(b1-3)Gal(b1-4)GlcNAc(b1-6)]GalNAc
# Method in brief: as §1
# [7] = target: Neu5Ac(a2-3)Gal(b1-4)GlcNAc(b1-3)Gal(b1-4)GlcNAc(b1-6)[Gal(b1-3)]GalNAc
# Method in brief: as §1
# [8] = target: Neu5Ac(a2-3)Gal(b1-4)GlcNAc(b1-3)Gal(b1-4)[Fuc(a1-3)]GlcNAc
# Method in brief: as §1
# [9] = target: Neu5Ac(a2-3)Gal(b1-4)GlcNAc(b1-3)GalNAc
# Method in brief: as §1
# [10] = target: Neu5Ac(a2-3)Gal(b1-4)GlcNAc(b1-3)[Neu5Ac(a2-3)Gal(b1-4)GlcNAc(b1-6)]GalNAc
# Method in brief: as §1
# [11] = target: Neu5Ac(a2-3)Gal(b1-4)GlcNAc(b1-6)GalNAc
# Method in brief: as §1
# [12] = target: Neu5Ac(a2-3)Gal(b1-4)GlcNAc(b1-6)[Gal(b1-3)]GalNAc
# Method in brief: as §1
# [13] = target: Neu5Ac(a2-3)Gal(b1-4)GlcNAc(b1-6)[Neu5Ac(a2-3)Gal(b1-3)]GalNAc
# Method in brief: as §1
# [14] = target: Neu5Ac(a2-3)Gal(b1-4)GlcNAc6S
# Method in brief: as §1
# [15] = target: Neu5Ac(a2-3)Gal(b1-4)[Fuc(a1-3)]GlcNAc
# Method in brief: as §1
# [16] = target: Neu5Ac(a2-3)Gal(b1-4)[Fuc(a1-3)]GlcNAc(b1-2)Man
# Method in brief: as §1
# [17] = target: Neu5Ac(a2-3)Gal(b1-4)[Fuc(a1-3)]GlcNAc(b1-3)Gal
# Method in brief: as §1
# [18] = target: Neu5Ac(a2-3)Gal(b1-4)[Fuc(a1-3)]GlcNAc(b1-3)Gal(b1-4)GlcNAc
# Method in brief: as §1
# [19] = target: Neu5Ac(a2-3)Gal(b1-4)[Fuc(a1-3)]GlcNAc(b1-3)Gal(b1-4)[Fuc(a1-3)]GlcNAc(b1-3)Gal(b1-4)[Fuc(a1-3)]GlcNAc
# Method in brief: as §1
# [20] = target: Neu5Ac(a2-3)Gal(b1-4)[Fuc(a1-3)]GlcNAc(b1-3)GalNAc
# Method in brief: as §1
# [21] = target: Neu5Ac(a2-3)Gal(b1-4)[Fuc(a1-3)]GlcNAc(b1-6)[Gal(b1-3)]GalNAc
# Method in brief: as §1
# [22] = target: Neu5Ac(a2-3)Gal(b1-4)[Fuc(a1-3)]GlcNAc(b1-6)[Neu5Ac(a2-3)Gal(b1-3)]GalNAc
# Method in brief: as §1
# [23] = target: Neu5Ac(a2-3)Gal(b1-4)[Fuc(a1-3)]GlcNAc6S
# Method in brief: as §1
# [24] = target: Neu5Ac(a2-3)Gal6S(b1-4)GlcNAc
# Method in brief: as §1
# [25] = target: Neu5Ac(a2-3)Gal6S(b1-4)[Fuc(a1-3)]GlcNAc
# Method in brief: as §1
# [26] = target: Neu5Ac(a2-3)GalNAc
# Method in brief: as §1
# [27] = target: Neu5Ac(a2-3)GalNAc(b1-4)GlcNAc
# Method in brief: as §1
# [28] = target: Neu5Ac(a2-3)[GalNAc(b1-4)]Gal(b1-4)Glc
# Method in brief: as §1
# [29] = target: Neu5Ac(a2-3)[GalNAc(b1-4)]Gal(b1-4)GlcNAc
# Method in brief: as §1
# [30] = target: Neu5Ac(a2-3)[GalNAc(b1-4)]Gal(b1-4)GlcNAc(b1-3)GalNAc
# Method in brief: as §1
# [31] = target: Neu5Ac(a2-3)[Neu5Ac(a2-6)]GalNAc
# Method in brief: as §1
# [32] = target: Neu5Ac(a2-6)Gal
# Method in brief: as §1
# [33] = target: Neu5Ac(a2-6)Gal(b1-3)GlcNAc(b1-3)[Gal(b1-4)GlcNAc(b1-6)]Gal(b1-4)Glc
# Method in brief: as §1
# [34] = target: Neu5Ac(a2-6)Gal(b1-4)Glc
# Method in brief: as §1
binder,measurement,setting,value
Gal 8 (Homo sapiens) (protein) MLSLNNLQNIIYNPVIPYVGTIPDQLDPGTLIVICGHVPSDADRFQVDLQNGSSVKPRADVAFHFNPRFKRAGCIVCNTLINEKWGREEITYDTPFKREKSFEIVIMVLKDKFQVAVNGKHTLLYGHRIGPEKIDTLGIYGKVNIHSIGFSFSSDLQSTQASSLELTEISRENVPKSGTPQLQTVSPSWDLQGHGSETFCSVLWTRVFLEIAFCRPIGLTVASFQSLPFAARLNTPMGPGRTVVVKGEVNANAKSFNVDLLAGKSKDIALHLNPRLNIKAFVRNSFLQESWGEEERNITSFPFSPGMYFEMIIYCDVREFKVAVNGVHSLEYKHRFKELSSIDTLEINGDIHLLEVRSW,glycan array binding signal (z-score),[1],-0.192
same,glycan array binding signal (z-score),[2],0.079
same,glycan array binding signal (z-score),[3],2.12
same,glycan array binding signal (z-score),[4],-0.239
same,glycan array binding signal (z-score),[5],-0.305
same,glycan array binding signal (z-score),[6],0.06
same,glycan array binding signal (z-score),[7],-0.289
same,glycan array binding signal (z-score),[8],0.272
same,glycan array binding signal (z-score),[9],-0.35
same,glycan array binding signal (z-score),[10],-0.345
same,glycan array binding signal (z-score),[11],-0.349
same,glycan array binding signal (z-score),[12],-0.143
same,glycan array binding signal (z-score),[13],-0.097
same,glycan array binding signal (z-score),[14],0.86
same,glycan array binding signal (z-score),[15],-0.22
same,glycan array binding signal (z-score),[16],-0.357
same,glycan array binding signal (z-score),[17],-0.359
same,glycan array binding signal (z-score),[18],-0.361
same,glycan array binding signal (z-score),[19],-0.384
same,glycan array binding signal (z-score),[20],-0.353
same,glycan array binding signal (z-score),[21],-0.347
same,glycan array binding signal (z-score),[22],-0.349
same,glycan array binding signal (z-score),[23],-0.261
same,glycan array binding signal (z-score),[24],-0.348
same,glycan array binding signal (z-score),[25],-0.386
same,glycan array binding signal (z-score),[26],-0.117
same,glycan array binding signal (z-score),[27],-0.021
same,glycan array binding signal (z-score),[28],-0.4
same,glycan array binding signal (z-score),[29],-0.382
same,glycan array binding signal (z-score),[30],-0.354
same,glycan array binding signal (z-score),[31],-0.404
same,glycan array binding signal (z-score),[32],-0.391
same,glycan array binding signal (z-score),[33],-0.356
same,glycan array binding signal (z-score),[34],0.145
